Assay [1] has as its target GST-PRAS40 (proline-rich AKT substrate of 40 kDa), full length (human) (UniProt Q96B36). As to the kind of experiment: pull-down; GST pull-down of P65 by full-length PRAS40 with the PRAS40 98-110 fragment co-expressed as competitor (Figure 4c lanes 5 and 6).
The target is the same in assay [2]. As to the kind of experiment: pull-down; GST-PRAS40 pull-down of exogenous or endogenous P65 with Venus- or HA-tagged p65 180-200 co-expressed as competitor (Figure 6a, b).
The next assay concerns the target GST-PRAS40 1-110 (human) (UniProt Q96B36). As to the kind of experiment: pull-down; GST-tagged and Venus-tagged (or otherwise tagged) proteins co-transfected in cells; lysis in CHAPS buffer (40 mM HEPES pH 7.5, 120 mM NaCl, 1 mM EDTA, 0.3% CHAPS); glutathione beads overnight at 4 °C; western blot of eluates. Background: A western blot detects proteins with antibodies after separation by electrophoresis.

The chains behind the UniProt entries cited, without tags or fusion partners. Where a name states a change or a piece, a line headed by the entry shows the natural chain unless it says otherwise. Residues count along the entry.
UniProt Q04206: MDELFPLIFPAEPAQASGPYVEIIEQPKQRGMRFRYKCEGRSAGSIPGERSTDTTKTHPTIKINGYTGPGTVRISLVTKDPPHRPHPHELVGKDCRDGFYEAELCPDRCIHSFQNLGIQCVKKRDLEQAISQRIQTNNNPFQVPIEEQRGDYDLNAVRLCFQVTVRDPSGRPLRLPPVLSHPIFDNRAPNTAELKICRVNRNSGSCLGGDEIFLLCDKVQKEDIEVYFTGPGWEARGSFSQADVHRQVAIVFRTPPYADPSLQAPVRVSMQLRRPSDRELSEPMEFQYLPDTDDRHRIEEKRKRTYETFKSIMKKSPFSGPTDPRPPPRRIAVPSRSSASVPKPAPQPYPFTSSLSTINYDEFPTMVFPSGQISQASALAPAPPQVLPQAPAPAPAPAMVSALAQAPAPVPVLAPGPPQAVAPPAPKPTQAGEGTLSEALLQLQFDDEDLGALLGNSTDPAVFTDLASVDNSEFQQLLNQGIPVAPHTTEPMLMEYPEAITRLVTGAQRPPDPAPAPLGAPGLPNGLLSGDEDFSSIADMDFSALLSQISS

In assay [3] the target is GST-PRAS40 75-256 (human) (UniProt Q96B36). The assay is described as above.
Assay [4] addresses GST-PRAS40 110-256 (human) (UniProt Q96B36). The assay is described as above.
Another assay deals with GST-PRAS40 1-75 (human) (UniProt Q96B36). The assay is described as above.
In assay [5] the target is GST-PRAS40 (proline-rich AKT substrate of 40 kDa), full length (human) (UniProt Q96B36). Described as above.
For assay [6], the target named is GST-PRAS40 23-256 (human) (UniProt Q96B36). The description is as above.
For assay [7], the target named is GST-PRAS40 44-256 (human) (UniProt Q96B36). Described as above.
The next assay addresses GST-PRAS40 1-125 (human) (UniProt Q96B36). Described as above.
In a further assay the target is GST-PRAS40 1-23 (human) (UniProt Q96B36). Described as above.
Assay [8] has as its target GST-PRAS40 98-256 (human) (UniProt Q96B36). Described as above.
For another assay, the target named is GST-PRAS40 1-51 (human) (UniProt Q96B36). The description is as above.
Assay [9] addresses T1, PRAS40 98-110 fragment (human).
T1 sequence: LAREDNEEDEDEP
Described as above.

Assay [10] has as its target endogenous p65 (A375 and A549 cells) (human (endogenous in A375 and A549)) (UniProt Q04206). Put plainly: co-IP; endogenous proteins in A375 and A549 lysates; NP-40 lysis buffer (50 mM Tris-HCl pH 7.6, 150 mM NaCl, 1 mM EDTA, 1% NP-40); antibody overnight at 4 °C, protein A/G-Sepharose; immunoblot.

These are yes or no findings as the source states them, for the method shown. In cells and extracts the contact can be indirect. Some binding calls cover weakened binding; strength is not graded here.

As for “Venus-p65 (P65 protein with the Venus-Flag tag), full length (from UniProt Q04206 1-551)”, the binding result was “binds” in assay [1]; “binds” in assay [2]; “binds” with GST-PRAS40 1-110 (human); “binds” in [3]; “no binding” in assay [4]; “no binding” with GST-PRAS40 1-75 (human). Further, the binding entry in assay [5] is listed as “binds”; in assay [6], “binds”; in assay [7] it was “binds”; with GST-PRAS40 1-125 (human) it was “binds”; with GST-PRAS40 1-23 (human), “no binding”; in assay [8], “binds”. Besides, the binding result in the assay with GST-PRAS40 1-51 (human) is reported as “no binding”; in assay [9] it was “binds”.

Turning to “endogenous P65 (cells transfected with GST-PRAS40) (from UniProt Q04206 1-551)”, in assay [2], the binding entry was “binds”.

As for “endogenous PRAS40 (from UniProt Q96B36 1-256)”, in assay [10], the binding result is “binds”.

“p65 1-190 (from UniProt Q04206 1-190) (domain or fragment)”: the binding entry in [5] is given as “no binding”.

“p65 1-196 (from UniProt Q04206 1-196) (domain or fragment)”: the binding entry in assay [5] is “binds”.

On to “p65 1-313 (Rel homology domain) (from UniProt Q04206 1-313) (domain or fragment)”, for which the binding entry in assay [5] is recorded as “binds”.

Consider “p65 1-521 (from UniProt Q04206 1-521) (domain or fragment)”, for which the binding result in [5] is given as “binds”.

For the substance “p65 1-534 (from UniProt Q04206 1-534) (domain or fragment)”, the binding entry in assay [5] is on record as “binds”.

As to “p65 126-313 (from UniProt Q04206 126-313) (domain or fragment)”, the binding entry in [5] is “binds”.

Consider “p65 190-290 (from UniProt Q04206 190-290) (domain or fragment)”, for which the binding result in [5] is “no binding”.

In the case of “p65 271-551 (from UniProt Q04206 271-551) (domain or fragment)”, the binding entry in assay [5] is given as “no binding”.

The record behind these values is paper PMC5623906.
